# In all, about 310,000 compounds went through this assay and about 14,000 (4.5%) showed an effect of 50% or more. The effect is printed as a negative number. This is one part of the list.
# Target: human ether-à-go-go-related gene (hERG) potassium channel (human, UniProt Q12809)
# Assay: primary screen, population patch clamp on CHO cells stably expressing hERG
# 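Note: peak tail current of the secondary pulse compared with the same well before compound.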
# Chain of human ether-à-go-go-related gene (hERG) potassium channel (Q12809 whole entry, looked up): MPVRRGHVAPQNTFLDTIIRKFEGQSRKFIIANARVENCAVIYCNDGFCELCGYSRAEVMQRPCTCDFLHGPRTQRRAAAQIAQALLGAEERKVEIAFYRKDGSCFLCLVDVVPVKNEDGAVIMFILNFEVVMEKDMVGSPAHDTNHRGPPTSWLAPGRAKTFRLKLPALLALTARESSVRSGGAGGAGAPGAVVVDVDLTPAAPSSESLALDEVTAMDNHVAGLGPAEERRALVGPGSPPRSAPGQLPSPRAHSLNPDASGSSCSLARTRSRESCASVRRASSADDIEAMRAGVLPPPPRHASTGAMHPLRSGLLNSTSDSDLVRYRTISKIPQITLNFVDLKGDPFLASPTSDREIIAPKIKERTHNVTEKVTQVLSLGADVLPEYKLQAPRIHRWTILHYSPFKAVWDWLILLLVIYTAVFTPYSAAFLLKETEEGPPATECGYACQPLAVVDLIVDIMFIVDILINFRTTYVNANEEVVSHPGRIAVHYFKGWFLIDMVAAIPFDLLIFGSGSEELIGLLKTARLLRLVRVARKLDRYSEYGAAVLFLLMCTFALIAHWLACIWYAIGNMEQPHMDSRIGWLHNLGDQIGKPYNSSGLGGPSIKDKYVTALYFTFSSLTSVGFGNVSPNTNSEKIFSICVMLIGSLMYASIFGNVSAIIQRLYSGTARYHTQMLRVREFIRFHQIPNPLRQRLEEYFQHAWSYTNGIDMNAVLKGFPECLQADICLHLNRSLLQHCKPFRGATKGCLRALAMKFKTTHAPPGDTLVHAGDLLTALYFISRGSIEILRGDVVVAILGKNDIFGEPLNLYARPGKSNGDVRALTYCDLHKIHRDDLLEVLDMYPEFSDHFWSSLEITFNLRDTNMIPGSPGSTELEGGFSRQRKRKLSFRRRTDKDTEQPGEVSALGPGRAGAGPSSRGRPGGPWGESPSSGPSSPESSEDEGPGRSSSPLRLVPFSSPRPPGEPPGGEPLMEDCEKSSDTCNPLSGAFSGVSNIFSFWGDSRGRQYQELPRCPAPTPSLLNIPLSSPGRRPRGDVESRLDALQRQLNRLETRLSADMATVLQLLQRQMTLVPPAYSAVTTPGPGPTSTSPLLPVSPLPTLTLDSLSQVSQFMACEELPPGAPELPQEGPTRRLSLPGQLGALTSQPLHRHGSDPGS
row,SMILES,"hERG current change (%, negative = inhibition) at 10uM"
1,CCc1nc2ccccc2c(NC(=O)CN2CCC(C)CC2)c1C.O=C(O)C(=O)O,-29.2%
2,COc1cc(C(=O)Oc2cc(N)n(S(=O)(=O)c3ccc(F)cc3)n2)cc(OC)c1OC,16.1%
3,CCCCNC(=O)C1CCN(S(=O)(=O)c2cnc[nH]2)CC1,10.3%
4,CCOc1[nH]c(/N=C/c2ccco2)c(C#N)c1C#N,3.52%
5,O=C(Nc1ccc(S(=O)(=O)Nc2nccs2)cc1)c1cc(-c2ccccc2Cl)nc2ccccc12,12%
6,CCOc1ccc(CNC(=O)CCn2c(=O)oc3ccccc32)cc1,-26.9%
7,c1ccc(Cc2nc3ccccc3n2Cc2ccccc2)cc1,-53.4%
8,O=C(CCNNC(=O)c1ccncc1)NCc1ccccc1,9.98%
9,CCOC(=O)[C@H]1[C@H]2COc3ccc(Br)cc3[C@@H]2N2C(=O)CN(Cc3ccc(F)cc3)C(=O)[C@@]12C,-3.28%
10,Cn1c(SCc2ccc(F)cc2Cl)nc2ccccc2c1=O,15.5%
11,CCCCc1nc(SCCOC)c2c(=O)n(C)c(=O)n(C)c2n1,-23%
12,CCn1c(SCC(=O)NCCc2ccccc2)nnc1-c1ccco1,-18.1%
13,COc1ccc(CSc2ncnc3sccc23)cc1F,26.9%
14,O=C(CC(c1ccccc1)c1ccccc1O)N1CCCC1 (stereo not shown),-11.9%
15,CCOC(=O)c1ccccc1NC(=O)COC(=O)CC1CCCCC1,7.72%
16,COc1ccc(NC(=O)c2cc(C)nc3ccccc23)cc1S(=O)(=O)Nc1ccccc1Cl,11%
17,O=C(Nc1ccccc1Cl)c1cc[n+](Cc2ccc([N+](=O)[O-])cc2)cc1.[Br-],10.6%
18,C[C@@H](NC(=O)c1ncn(C)c1C(=O)N[C@H](C)c1ccccc1)c1ccccc1,-2.69%
19,Cc1cc(C)c(NC(=O)CNC(=O)[C@@H]2CCCN2C(=O)c2cccs2)c(C)c1,-3.04%
20,COc1ccc(CCNC(=O)C2CC(c3ccccc3C(F)(F)F)=NO2)cc1 (stereo not shown),-0.696%
21,CCCCOC(=O)C1=C(C)NC2=C(C(=O)CCC2)C1c1cc(OC)ccc1OC (stereo not shown),-14.8%
22,CCOC(=O)C1CCN(C(=O)Cc2ccc(-c3ccccc3)cc2)CC1,-57.7%
23,Cn1c(N)c(S(=O)(=O)NCc2ccccc2)c(=O)n(C)c1=O,17.7%
24,Cc1ccc(NC(=O)COC(=O)CNC(=O)c2cccc([N+](=O)[O-])c2)cc1S(=O)(=O)N1CCCCCC1,-49.1%
25,CCOc1cc(NC(=O)c2cccs2)c(OCC)cc1NC(=O)CCC(=O)NCC1CCCO1 (stereo not shown),18.2%
26,O=C(c1ccco1)n1nc(-c2cccnc2)nc1NCc1ccco1,-11.1%
27,CC1=Nc2ccccc2N=C(NC(=O)CN2CCN(c3ccccc3)CC2)C1c1ccccc1 (stereo not shown),17%
28,Cc1ccc(/C=C/C(=O)N2CC(=O)Nc3ccccc32)o1,-24.2%

row,SMILES,"hERG current change (%, negative = inhibition) at 10uM"
1,CCCCn1c(N)c(N(CCC(C)C)C(=O)C2CC(=O)N(CCc3ccc(OC)c(OC)c3)C2)c(=O)[nH]c1=O (stereo not shown),-11.5%
2,NC(=O)c1ccc(-n2nnnc2SCC(=O)Nc2ccccc2F)cc1,18.9%
3,Cc1nc(S(=O)(=O)N2CCOCC2)c(C#N)c(C)c1Cl,4.49%
4,COC(=O)c1ccccc1NC(=O)CNC(=O)c1ccc(OC)c(OC)c1,-0.204%
5,CCOc1cc(CNCc2ccccn2)cc(Cl)c1OCC.Cl,-0.796%
6,O=C(C1CCN(S(=O)(=O)N2CCOCC2)CC1)N1CCc2ccccc21,-3.51%
7,Cn1c(=O)c2[nH]c(CNc3ccc(C(=O)O)cc3)nc2n(C)c1=O,0.163%
8,COc1ccc(-c2onc3ccc(Br)cc23)cc1,8.68%
9,O=C(NCCc1ccc(F)cc1)c1n[nH]c2ccccc12,0.395%
10,CCc1nc2ccccc2n1CC(=O)Nc1cc(C)on1,5.49%
11,COc1cccc(NS(=O)(=O)c2ccc3c(c2)CC(=O)N3)c1,-0.388%
12,Cc1ccc(C(=O)N2C(=O)C(c3ccccc3)Oc3ccccc32)cc1 (stereo not shown),3.82%
13,CCN(CC)CCN1C(=O)C(=O)/C(=C(/O)c2ccc(OC(C)C)cc2)C1c1ccncc1 (stereo not shown),14.6%
14,CN=C1S/C(=C\c2cn(CC(=O)OC)c3ccccc23)C(=O)N1C,7.11%
15,Cc1nnc(SCc2ccc([N+](=O)[O-])cc2)[nH]c1=O,15%
16,CCCC1(CCC)NC(=O)N(CC(=O)Nc2ccccc2OC)C1=O,5.47%
17,CCc1noc(C)c1C(=O)Nc1ccccc1C(C)(C)C,-4.94%
18,COc1ccc(CCNC(=O)Cn2cnc3ccccc3c2=O)cc1OC,13%
19,CCc1ccc(/C=C2\C(=N)N3N=C(CC(=O)N4CCCCC4)SC3=NC2=O)cc1,11.9%
20,COc1cc(NC(=O)CN2CCCCCC2)cc(OC)c1,5.28%
21,FC(F)(F)c1ccc2c(c1)ncn2C1CCN(Cc2nnnn2C2CCCCC2)CC1,-59.6%
22,CN(C)c1ccc(S(=O)(=O)NCC(=O)NCC2CCCCC2)cc1[N+](=O)[O-],-1.3%
23,O=C(NNc1nc(-c2ccccc2)c2cc(Br)ccc2n1)c1ccc(S(=O)(=O)N2CCOCC2)cc1,-8.01%
24,COc1ccc(CC(=O)NCC2CCCCC2)cc1OC,-1.62%
25,CCCCCCCCS(=O)c1sc2nc(C)cc(C)c2c1N (stereo not shown),-17.2%
26,N#Cc1cc2c(nc1SCC(O)CS(=O)(=O)Cc1ccc(Cl)cc1)CCCC2 (stereo not shown),-33.1%
27,O=C(c1ccccc1)N1CCN(C(=O)c2nn3c(C(F)(F)F)cc(-c4ccco4)nc3c2Br)CC1,-4.55%
